We go through 167 variants from the RNAGym collection of RNA variant scans (doi:10.1093/nar/gkz1192).

The source gives no read counts; variants with many changes may rest on few reads.

Sequences and labels used below:
B1: CPEB3 Ribozyme (parent)
chain: UAACAGGGGGCCACAGCAGAAGCGUUCACGUCGCAGCCCCUGUCAGAUUCUGGUGAAUCUGCGAAUUCUGCUGUAUAUCUC

The variants in the series derive from B1. In words: self-cleavage, relative activity (ratio to wild type); higher = more cleavage; in vitro, sequencing. The procedure, abridged: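 For each CPEB3 ribozyme variant, relative activity is its cleaved/total read fraction divided by the unmutated ribozyme's. Barcoded error-prone PCR libraries were transcribed by T7 RNA polymerase (5 hours, 37°C) and held in DNase I for 15 min before an EDTA stop, with cleavage occurring throughout. Template-switching reverse transcription and Illumina sequencing were used to read the RNAs. A 5-read minimum applied, and results are the mean of three batches.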
In the case of A5G A18U U26C G33A U43C, the self-cleavage worked out at 0.11. With A5G A18G U31A G61C U67A the figure was 0.06; with A5G A20U A35U U41A A45G U72A, 0.07. For A5G C12G U25C U69A, the self-cleavage came to 0.26. The same measure for A5G A28U U49C U78C: 0.29; for A5G A20G A21G U54G: 0.13. Consider A5G C14U U25G A35U, for which the self-cleavage was 0.11. With A5G A20G U51A A64G the figure was 0.43.

Consider A5G C17G A56G A77U, for which the self-cleavage was 0.07.

As for A5G A20G A21G, the self-cleavage came out at 0.63. Turning to A5G A28G A64G C71A, the self-cleavage is 0.16. With A5G A18U A47G A57G A65U U80C the figure was 0.11. The same measure for A5G A18G U54A A56G U74C: 0.56; for A5G A21G C40U U41A: 0.4.

Regarding A5G C17G A18U U51A U60C U78C, the self-cleavage amounted to 0.03.

On to A5G C12U A18G A21U U78C, for which the self-cleavage amounted to 0.09. With A5G A20G U31C U66C the figure was 0.04; with A5G A20U U51C A56G U72A, 0.09; with A5G A35U C37A U43C A47G A56G, 0.32. With A5G A20G A28U U41C A47G U60A the figure was 0.49. Turning to A5G A35G A45U, the self-cleavage stood at 0.38.

On to A5G A18G U54A U72A U76C, for which the self-cleavage was determined as 0.4. With A5G C17A U69C the figure was 0.1; with A5G A56G U58C, 0.33; with A5G A28C U80A, 0.45. With A5G A20G U43A the figure was 0.51; with A5G A65U C68A, 0.17; with A5G C11U U51C G61A U74C, 0.14. Take A5G A57G A64G U72G: the self-cleavage came out at 0.32. With A5G C12U G33A U43C A45U A56G the figure was 0.06.

Consider A5G C11G U41A A65U, for which the self-cleavage is 0.07. The same measure for A5G A18U U67C: 0.24; for A5G A20G G42A U51C U60C G70A U72A: 0.15. The same measure for A5G A56G U69C U72C: 0.24.

Regarding A5G A28U A47G A57G U69C A77U, the self-cleavage was determined as 0.1. With A5G A21G U26A A28U C40A G63A A64C the figure was 0.13.

Consider A5G A18G U60C A75G, for which the self-cleavage turned out to be 0.25. The same measure for A5G A20G U48A A57G C62A: 0.3; for A5G A21G A65G U74C: 0.09. With A5G A18G U43C U51A the figure was 0.59. With A5G A28G U31A A64G the figure was 0.04.

As for A5G A20U C50A, the self-cleavage came to 0.39. For A5G C14G A65U, the self-cleavage came to 0.35. A5G C11A C23U A56G: the self-cleavage stood at 0.06. The same measure for A5G C12G A35U U51C U58A U69C: 0.07; for A5G A28G A45G U48A C59A U67C: 0.26; for A5G A18U G30A U41A C44A U69C U80C: 0.13. Consider A5G A64C A77G, for which the self-cleavage turned out to be 0.12. The same measure for A5G A28G A57G: 0.16. With A5G A45U G63A U67C the figure was 0.22; with A5G C14U A15U G52U, 0.63; with A5G A21G U31A U49C U78C, 0.07. With A5G A35U U78A the figure was 0.35; with A5G A21G A28U C29U A47G U54C U76A, 0.08. Take A5G A21G U60A: the self-cleavage was found to be 0.14.

For the variant A5G A47U A56U U58C U80C, the self-cleavage was 0.05. Take A5G C12U A15C G30A A57G U78C: the self-cleavage turned out to be 0.07. The same measure for A5G A28U G33U U49C: 0.23. The same measure for A5G A35G U78C: 1.15; for A5G C14U U43C U58C: 0.11; for A5G A20U G30A U48C U49C: 0.06. With A5G A35U U49C U80A the figure was 0.2; with A5G A28U A64U U67C U69C, 0.31.

With A5G A45C U67A U72G, the self-cleavage worked out at 0.08. For the variant A5G A35G G36C U60A, the self-cleavage was found to be 0.76.

As for A5G C14A A21G U49C U69C U72A U74A, the self-cleavage came to 0.19.

A5G A20G U58C U67A U72C: the self-cleavage worked out at 0.08. Regarding A5G C12A A13G U26G, the self-cleavage was found to be 0.32. The same measure for A5G A57G U72C: 0.75; for A5G A28U U41A U72C U78C: 0.43; for A5G A21G U26C C27G: 0.41. With A5G C12G U31A U41C G73C U80C the figure was 0.33; with A5G A28G U69C, 0.08; with A5G A21G C23U U54C U72C, 0.25. For A5G A20U U25C, the self-cleavage amounted to 0.5. The same measure for A5G A18U C29U U54C A65U U67C U69A: 0.12. A5G A28G A64G: the self-cleavage stood at 0.52.

In the case of A5G C11G A15U A57G U78A, the self-cleavage worked out at 0.14. With A5G A20U C29U A35G A64G U67C U72A the figure was 0.08; with A5G A20G G55A U60A, 0.18; with A5G C12A A45U A65G, 0.08. With A5G A20U A35U C44A the figure was 0.29; with A5G A28G U43A A57G C62A, 0.07. In the case of A5G A45U U60A U67A, the self-cleavage was 0.18.

Regarding A5G A47G U54C G63U, the self-cleavage amounted to 0.4. With A5G A21G C32U U51C U54C A77G the figure was 0. The same measure for A5G C11U G24A U25A A77G: 0.08; for A5G A21G C23U C50A U60A G73A: 0.08; for A5G A21G U41A A56G U67A G73A: 0.32. With A5G A21G G33U, the self-cleavage worked out at 0.27. The same measure for A5G A35C U48C A64G U80G: 0.17; for A5G C17A G30A C79A: 0.69; for A5G A28G U49C A56G: 0.43. With A5G A21G U58A U69A the figure was 0.07. The same measure for A5G A45G U48C U51C: 0.43.

For A5G A45G A56G A64G U78C, the self-cleavage came to 0.54. Take A5G A21G C27U U41A U67C U72A: the self-cleavage was determined as 0.07. A5G A47U U48C C71A U78A: the self-cleavage was determined as 0.05. The same measure for A5G C14A A15G U60C A77U: 0.13. With A5G A28G G30A the figure was 0.11; with A5G A28U U41A, 0.34. In the case of A5G A28U U41C, the self-cleavage worked out at 0.35. Take A5G A35G A64G U67C U80A: the self-cleavage worked out at 0.28. Take A5G A18U U31C A35G G36A U54C U80C: the self-cleavage was found to be 0.41. The same measure for A5G A20G U25C C40A A64G U80C: 0.09; for A5G A21G U41C U58G C68A: 0.17. With A5G A35G U66C U74C U80C the figure was 1.05; with A5G A18U U67C U72A, 0.06; with A5G A28U U41C U51A, 0.27. The same measure for A5G A20U C39G U41C U69A U80C: 0.06; for A5G A20G U25C U41C U67C U74A: 0.04; for A5G A18U A35G A47G A56U U67C: 0.16. Turning to A5G A21G C40U U78C, the self-cleavage was found to be 0.06.

Turning to A5G A56U A65G, the self-cleavage was 0.23. Take A5G A65G A75U U78C: the self-cleavage is 0.19.

On to A5G A20G A75G U78A, for which the self-cleavage came out at 0.66. As to A5G A28U U31C U49G U66C, the self-cleavage came to 0.05.

As for A5G A28G U41C, the self-cleavage turned out to be 0.41. As to A5G A28U A56G, the self-cleavage came out at 0.23. A5G C12G U58C A65G: the self-cleavage worked out at 0.06.

A5G A28G A45U: the self-cleavage came out at 0.11. For A5G A20C A28C U66C U80C, the self-cleavage stood at 0.06.

As for A5G A20U G46A C59U, the self-cleavage worked out at 0.39.

In the case of A5G A20U U49C U54C U80A, the self-cleavage turned out to be 0.58.

As for A5G A35U U49A A56G U66A, the self-cleavage came to 0. In the case of A5G A28G A47G U72A A77U, the self-cleavage is 0.06. The same measure for A5G A56G A64U: 0.1; for A5G A20G U26C U72C U74A U80A: 0.53; for A5G A47U A56U A64G: 0.1. The same measure for A5G A20G A35U U72A: 0.04. The same measure for A5G C12A C40A A45U G70C U74C: 0.13; for A5G A18U G46A U69A: 0.06; for A5G A35G A64C: 0.34. Consider A5G A45G U60C, for which the self-cleavage stood at 0.63.

Take A5G A20G U31A C62U U80C: the self-cleavage came out at 0.1.

With A5G A21G A28U U51C A64G, the self-cleavage is 0.7. As to A5G A21G U43C U69C, the self-cleavage was determined as 0.22. With A5G A56G U60C A65U U80C the figure was 0.16; with A5G A20G U25C U51C A56G, 0.27; with A5G A20G U31A A35G A47G A56G U76C, 0.25. On to A5G A20U G63U, for which the self-cleavage was determined as 0.07.

For A5G A21G A45G A64G, the self-cleavage was determined as 0.05. The same measure for A5G A21G U31A A47U C50G G61A A65U: 0.1. The same measure for A5G A28G U58C C79A: 0.18; for A5G A20U U41A U67C: 0.09; for A5G C14G U43C U60C U66C: 0.31. As for A5G A47G U72A A75G U78A, the self-cleavage is 0.68. The same measure for A5G A56U U60A U69C U78A: 0.12. On to A5G A18G U60C U69C, for which the self-cleavage came out at 0.34. The same measure for A5G A57G U60C A64G: 0.11; for A5G A47G U60A U72A U80C: 0.13. Consider A5G A21G U26A C40U U48C, for which the self-cleavage worked out at 0.07. The same measure for A5G A35U G63A A64U U66C U67C U78C: 0.07; for A5G C11U A15U A47G U72C: 0.14; for A5G C11A U43C A64U: 0.1.

Consider A5G A45G A56G U58A, for which the self-cleavage turned out to be 0.5. The same measure for A5G C14A C27G A45G: 0.33; for A5G A20C U26C: 0.53; for A5G A35C U43C U60C U78C: 0.06. As to A5G A20G A21U A64G U66C, the self-cleavage turned out to be 0.18. For A5G A56G G70A U80C, the self-cleavage came out at 0.32. With A5G A21G A56G U58C U69A the figure was 0.1. With A5G A20U U31A U41C U49A G55A G73A the figure was 0. For the variant A5G A20G U43C U58C U60C U67A, the self-cleavage is 0.2. The same measure for A5G A28G A47G A77G U80A: 0.22. Turning to A5G A45G A56U U78C, the self-cleavage was determined as 0.21. With A5G A21G G63U the figure was 0.32.
